# Data reported in article PMC4336329 (PLoS ONE, 2015).
# In all, about 310,000 compounds went through this assay and about 2,200 (0.71%) showed an effect of 50% or more. The effect is printed as a negative number. The list shows a part of the results.
# Target: human ether-à-go-go-related gene (hERG) potassium channel (human, UniProt Q12809)
# Test: primary screen, population patch clamp on CHO cells stably expressing hERG
# Chain of human ether-à-go-go-related gene (hERG) potassium channel (Q12809 whole entry, looked up): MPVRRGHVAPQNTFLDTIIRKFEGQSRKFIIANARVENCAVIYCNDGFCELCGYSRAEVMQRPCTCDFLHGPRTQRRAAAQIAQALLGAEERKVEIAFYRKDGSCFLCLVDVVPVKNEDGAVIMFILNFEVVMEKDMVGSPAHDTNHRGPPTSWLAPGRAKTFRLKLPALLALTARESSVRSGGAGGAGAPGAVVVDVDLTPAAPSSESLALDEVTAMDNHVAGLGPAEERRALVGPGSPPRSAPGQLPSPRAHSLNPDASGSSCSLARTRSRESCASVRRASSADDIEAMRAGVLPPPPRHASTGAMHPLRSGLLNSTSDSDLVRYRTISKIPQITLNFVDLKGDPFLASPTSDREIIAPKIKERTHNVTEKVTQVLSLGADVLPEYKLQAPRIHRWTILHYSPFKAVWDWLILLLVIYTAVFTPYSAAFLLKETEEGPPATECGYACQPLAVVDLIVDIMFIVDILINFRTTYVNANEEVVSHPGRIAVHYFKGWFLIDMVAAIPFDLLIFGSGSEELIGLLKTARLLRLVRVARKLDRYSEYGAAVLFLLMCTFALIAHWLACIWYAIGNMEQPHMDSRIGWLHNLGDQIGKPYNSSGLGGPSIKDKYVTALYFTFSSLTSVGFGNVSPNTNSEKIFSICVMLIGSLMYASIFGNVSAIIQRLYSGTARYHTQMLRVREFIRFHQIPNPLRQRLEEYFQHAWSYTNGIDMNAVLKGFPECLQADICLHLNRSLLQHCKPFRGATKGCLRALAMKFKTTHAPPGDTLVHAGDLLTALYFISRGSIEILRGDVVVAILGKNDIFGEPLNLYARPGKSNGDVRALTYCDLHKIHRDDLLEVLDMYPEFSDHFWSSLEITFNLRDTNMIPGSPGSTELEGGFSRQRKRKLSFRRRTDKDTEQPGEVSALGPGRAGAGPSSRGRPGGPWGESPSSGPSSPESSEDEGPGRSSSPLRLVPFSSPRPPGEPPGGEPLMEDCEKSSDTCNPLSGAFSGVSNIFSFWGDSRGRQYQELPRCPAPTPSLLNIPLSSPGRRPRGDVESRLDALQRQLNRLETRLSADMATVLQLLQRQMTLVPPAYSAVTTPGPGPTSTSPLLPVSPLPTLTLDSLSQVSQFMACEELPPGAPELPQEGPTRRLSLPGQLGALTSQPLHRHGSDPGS
row,SMILES,"hERG current change (%, negative = inhibition) at 1uM [%]"
1,Cc1c(C(=O)NCCc2ccc(Cl)cc2)sc2nc3n(c(=O)c12)CCC3,9.41
2,OCCn1c(SC2CCCCC2)nc2ccccc21,4.65
3,CCOc1cc(/C=N\NC(=O)Cn2nc([N+](=O)[O-])cc2C)ccc1OCc1cccc2ccccc12,7.11
4,CC(=O)Nc1ccc(NC(=O)C(C)OC(=O)c2c(C)nn(-c3ccccc3)c2Cl)cc1 (stereo not drawn),-0.576
5,COc1ccccc1CNS(=O)(=O)c1c(C)[nH]c(C)c1C(=O)N1CCCCC1,1.44
6,Cc1nccn1CCOc1ccccc1Cl,-8.4
7,Cc1ccc(C2(C)NC(=O)N(CC(=O)Nc3ccccc3N3CCCC3)C2=O)cc1 (stereo not drawn),3.38
8,CC(OC(=O)c1cc2ccccc2o1)C(=O)Nc1ccc(N2CCOCC2)cc1 (stereo not drawn),6.35
9,COc1ccc(-n2cc(C(=O)c3cc(Cl)ccc3O)cc(C#N)c2=O)cc1,6.5
10,O=C(COC(=O)Cc1ccc(-c2ccccc2)cc1)NCc1ccccc1,16.9
11,CCOC(=O)C1CCN(c2c(-c3ccccc3)c3cc(Cl)ccc3[nH]c2=O)CC1,9.13
12,COCCSc1ccccc1C(=O)N1CCN(c2ccccc2)CC1,11.7
13,Cc1c(NC(=O)C(C)OC(=O)c2cccnc2Cl)c(=O)n(-c2ccccc2)n1C (stereo not drawn),8.31
14,COc1ccc(N(CC(=O)Nc2ccc3c(c2)OCCO3)S(=O)(=O)c2c(C)noc2C)cc1,-8.91
15,CCOC(=O)C(C)N1N=C(/C=C/c2ccc(C)cc2)CCC1=O (stereo not drawn),5.69
16,Cc1c(C(=O)Nc2cccc([N+](=O)[O-])c2)csc1-c1ccccc1,11.3
17,CC1CN(C(=O)c2ccccc2OCc2ccc(Cl)cc2Cl)CC(C)O1 (stereo not drawn),5.43
18,Brc1ccc2c(c1)OCCOCCOCCOCCOCCO2,-78.6
19,O=C(NCCCN1CCOCC1)c1cccc(S(=O)(=O)N2CCN(c3ccccc3)CC2)c1,-24.4
20,CCCCC1CCC(C(=O)Nc2ccccc2)CC1 (stereo not drawn),4.4
21,CC1CCN(S(=O)(=O)c2nnc(NC(=O)c3cccc([N+](=O)[O-])c3)s2)CC1,14.1

row,SMILES,"hERG current change (%, negative = inhibition) at 1uM [%]"
1,CC(C(=O)Nc1ccc2c(c1)OCO2)N(c1ccc(Cl)cc1)S(C)(=O)=O (stereo not drawn),-0.278
2,CCOc1ccc(CCNC(=O)CCOc2cc(C)ccc2C)cc1OCC,7.26
3,Cc1cc(=O)oc2cc(OCC(=O)N3CCN(C(=O)c4ccco4)CC3)ccc12.Cl,8.42
4,COc1ccc(CCCc2nnc(SCC(=O)Nc3cc(C)ccc3C)o2)cc1,12
5,CN(C)CCCN(C(=O)c1ccc(S(=O)(=O)N2CCCCCC2)cc1)c1nc2c(F)cccc2s1.Cl,-5.63
6,CCCNC(=O)c1cccc(COc2ccccc2OC)c1,-4.23
7,CCOc1ccc2oc(C(=O)NCc3ccccc3CN3CCCC3)c(C)c2c1,-12.2
8,Cc1ccc(C(CNC(=O)Nc2ccccc2)N2CCN(C)CC2)cc1 (stereo not drawn),1.43
9,COc1ccccc1Oc1nc(-c2ccccc2)cc(C)c1S(C)(=O)=O,3.89
10,CCN1CCN(c2cc(C)c3cc(NC(=S)N4CCCC4)ccc3n2)CC1,2.21
11,Cc1ccc(C)c(N2CCN(C(=O)CCS(=O)(=O)c3ccc4c(c3)NC(=O)CO4)CC2)c1,7.38
12,CC(Oc1ccccc1F)C(=O)NNC(=O)c1ccc(F)c(S(=O)(=O)N2CCOCC2)c1 (stereo not drawn),9.41
13,CCC(C)N(C(=O)COC(=O)c1ccccc1SCC(=O)N1CCCC1)C1CCS(=O)(=O)C1 (stereo not drawn),11.9
14,CCOC(=O)c1sc(=S)sc1SCc1cccc(C(F)(F)F)c1,15.5
15,COc1ccc(N2CCN(C(=O)c3ccc4c(c3)NC(=O)C(CSCc3cccc(F)c3)N4)CC2)cc1 (stereo not drawn),13.6
16,CCOc1ccc(NC(=O)C2CC(C)=C(C)CC2C(=O)O)cc1 (stereo not drawn),-1.62
17,Oc1ccc(-c2nc3ccccn3c2NCc2ccc3c(c2)OCO3)cc1,-17.9
18,COC(=O)C1=CN(Cc2ccc(OC)c(OC)c2)C=C(C(=O)OC)C1c1ccc(F)cc1,4.21
19,C=CCSc1nnc(NC(=O)Cc2ccc(OC)c(OC)c2)s1,15.5
20,CCOc1ccc(S(=O)(=O)N(CC(=O)NN=C2CCN(C)CC2)c2ccc(C)cc2)cc1,-22.8
21,Cc1cc(=O)n2nc(N3CCC(C(=O)NCc4cccc(Br)c4)CC3)sc2n1,12.3

row,SMILES,"hERG current change (%, negative = inhibition) at 1uM [%]"
1,CCN(CC)CCNC(=O)c1ccc(Cl)c(S(=O)(=O)Nc2ccc(Cl)cc2)c1,-0.359
2,CC1=C(C(=O)OC2CCCCC2)C(c2cccnc2)n2nnnc2N1 (stereo not drawn),11.7
3,CCCn1c(-c2cccc(F)c2)nc2c1c(=O)[nH]c(=O)n2Cc1ccccc1,16.1
4,CC(=O)c1cccc(CN2CCC(CO)(CCCc3ccccc3)CC2)c1,-7.89
5,Cc1ccc(NC(=O)CCN2CCN(C/C=C/c3ccccc3)CC2)cc1.Cl,-86.3
6,NC(=O)c1ccccc1OCc1nc2ccccc2s1,11.3
7,Cc1ccccc1N1CCN(CCC(=O)Nc2ccc(F)cc2)CC1,-13.8
8,COc1ccc(OC)c(N(CC(=O)N2CCCC2)S(=O)(=O)c2ccc(OC)c(OC)c2)c1,9.52
9,COc1ccc(C(=O)/C=C/NCc2ccc(F)cc2)cc1OC,11.6
10,COc1cccc(-c2cc(C(=O)Nc3cc(OC)c(OC)c(OC)c3)no2)c1,6.25
11,O=C1c2ccccc2C(=O)N1CCN1CCCCC1,-0.145
12,CCCCN(C(=O)c1ccc(OC)c([N+](=O)[O-])c1)c1c(N)n(CCC)c(=O)[nH]c1=O,11.1
13,O=C(CSc1nn(-c2ccc(F)cc2)c(=S)s1)NC1CCS(=O)(=O)C1 (stereo not drawn),5.02
14,CC(C)CCn1c(CN2CC(C)OC(C)C2)nc2c1c(=O)n(C)c(=O)n2C (stereo not drawn),15.3
15,CCOC(=O)N1CCN(CC(c2ccccc2)c2ccccc2)CC1,13.8
16,NC(=O)c1nsc(C(=O)N(Cc2ccccc2F)C(C(=O)NCC2CCCO2)c2ccc(F)cc2)c1N (stereo not drawn),-1.94
17,Cc1cc(Nc2nc3ccccc3nc2Cl)n(-c2ccc([N+](=O)[O-])cc2)n1,-1.05
18,Cc1ccc(S(=O)(=O)N2CC(C(=O)O)=CC[C@H]2c2ccc3c(c2)OCO3)cc1,7.09
19,COc1ccc(-c2nnc(Nc3ccc(OC)c(C(=O)N4CCCCC4)c3)c3ccccc23)cc1,12.4
20,O=C1CSC2=NCN(c3ccc4c(c3)OCO4)CN12,-5.06
21,COc1cc2c(cc1OC)C(C(=O)N1CCCC1)C(c1ccccc1F)N(C)C2=O (stereo not drawn),15.6

row,SMILES,"hERG current change (%, negative = inhibition) at 1uM [%]"
1,CCOc1ccc(-n2cnc3scc(-c4ccc(OC)c(OC)c4)c3c2=O)cc1,10.9
2,C=CCNc1nc2ccccc2nc1NS(=O)(=O)c1cccs1,-2.29
3,COc1ccc(N(CC(=O)NCCSCc2ccco2)S(=O)(=O)c2ccc(C)cc2)cc1,0.98
4,CCCc1cnc(N2CCN(C(=O)c3ccc(OC)cc3)CC2)nc1,1.83
5,CCNCc1cc([N+](=O)[O-])ccc1OCC.Cl,1.65
6,CN(CC(=O)Nc1cccc2c1CCCC2)S(=O)(=O)c1ccccc1,-0.639
7,CC(=O)N1CCCc2cc(S(=O)(=O)N3CCCC(C(=O)Nc4cccc(F)c4)C3)ccc21 (stereo not drawn),12
8,COc1ccccc1CNC(=O)Cc1csc(NC(=O)Nc2ccccc2OC)n1,2.57
9,CCCCNC(=O)Cn1cnc2sc(C(=O)OCC)c(C)c2c1=O,8.3
10,NC1=NC[C@@H](Cc2ccc(O)cc2)N1CCc1cccc2ccccc12,10.6
11,O=C(NN=C1CCCC1)c1ccccc1OCCOc1ccccc1,5.04
12,Cc1ccc(N(CC(=O)N2CCOCC2)S(C)(=O)=O)cc1,18.3
13,Cn1c2ccccc2c2c(C(=O)N3CCC4(CC3)OCCO4)cn(C3CCCCC3)c(=O)c21,10.8
14,COC(/C=C/Nc1ccc(C)cc1)=C(C#N)C#N,-10.6
15,Cc1ccc(C2=NN(S(C)(=O)=O)C(c3ccc4c(c3)OCO4)C2)cc1 (stereo not drawn),-1.85
16,CCOCCCn1c(=S)[nH]c2cc(C(=O)NC3CCCCC3C)ccc2c1=O (stereo not drawn),13.5
17,CN(C(=O)C12CC3CC(CC(C3)C1)C2)C1(C)CCS(=O)(=O)C1 (stereo not drawn),-2.04
18,Cc1cccnc1CN1CCN(Cc2nc(Cc3cccc(F)c3)no2)CC1,6.2
19,O=C(CCNS(=O)(=O)c1cccs1)Nc1ccccc1F,8.89
20,Nc1nnc(SCC(=O)N2CCN(c3ccccc3)CC2)n1-c1ccccc1,15.2
21,COc1ccccc1NC(=O)c1cc(N)cc(C(=O)Nc2ccccc2OC)c1,-11.9
